Reference: the supplement of paper PMC4723716
± gives the uncertainty stated by the source. Over roughly 9,900 compounds, “viability index relative to DMSO control” has its median near 1; the lowest 2% begin near 0.85. This is one part of the list.

test system: Plasmodium falciparum NF54 stage V gametocytes; test: viability index relative to DMSO control (fraction); higher = less gametocyte killing; settings: 2.5 µM, library set: Broad Institute DOS, incubation time: 72 h
Method in brief: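 P. falciparum NF54 stage V gametocytes (serum-free medium, 0.75% gametocytemia, 1.25% hematocrit) were exposed to compound at 2.5 µM for 72 hr at 37°C under low oxygen, then stained with MitoTracker Red CMXRos and saponin for one to two hours. Red particles of 20–70 µm2 in one field per well were counted, and the viability index is that count scaled to the plate mean of solvent-only wells.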

Compound | viability index
COc1ccc(S(=O)(=O)Nc2ccc3c(c2)CC(=O)N([C@H](C)CO)C[C@@H](C)[C@@H](CN(C)Cc2ccc(C(=O)Nc4ccccc4N)cc2)O3)cc1 | 0.956 ± 0.014
C[C@@H]1CN([C@@H](C)CO)S(=O)(=O)c2ccc(C#CC(C)(C)O)cc2O[C@@H]1CN(C)Cc1ccc(F)cc1 | 1.04 ± 0.061
C[C@H]1CN([C@@H](C)CO)C(=O)c2c(c3ccccc3n2C)-c2ccccc2CO[C@@H]1CN(C)C(=O)[C@@H](Cc1ccccc1)N(C)C | 1.07 ± 0.11
COc1ccc(NC(=O)N(C)C[C@@H]2OCc3ccccc3-c3ccccc3C(=O)N([C@H](C)CO)C[C@@H]2C)c(OC)c1 | 0.941 ± 0.17
O=C1CNC[C@H]2[C@@H](c3ccc(-c4ccccc4F)cc3)[C@H](CO)N12 | 0.996 ± 0.019
C/C=C/c1ccc2n(c1=O)C[C@H]1[C@H](CO)[C@@H](C(=O)N3CCc4ccccc4C3)[C@@H]2N1Cc1cocn1.C/C=C\c1ccc2n(c1=O)C[C@H]1[C@H](CO)[C@@H](C(=O)N3CCc4ccccc4C3)[C@@H]2N1Cc1cocn1 | 0.932 ± 0.058
C[C@@H]1CN([C@@H](C)CO)C(=O)CCCn2nncc2CO[C@@H]1CN(C)S(=O)(=O)c1cn(C)cn1 | 1.07 ± 0.041
CO[C@@H](CN(C)C(=O)c1cc(Cl)cc(Cl)c1)[C@H](C)CN(C(=O)Nc1ccc(F)cc1)[C@@H](C)CO | 1.07 ± 0.18
CC(=O)N1CCCCN2[C@@H](CO)[C@@H](c3ccc(-c4ccccc4)cc3)[C@@H]2C1 | 0.865 ± 0.2
O=C(Cc1ccccn1)N1CC2(C1)[C@@H](c1ccccc1)[C@@H](CO)N2C(=O)c1ccncc1 | 1.04 ± 0.046
CNC[C@@H]1OCc2cn(nn2)CCCC(=O)N([C@@H](C)CO)C[C@H]1C | 1.03 ± 0.11
OC[C@@H]1[C@H](c2ccc(-c3cccc(F)c3)cc2)[C@H]2CN(Cc3cncnc3)CCCCN12 | 1.06 ± 0.036
CO[C@H](CN(C)C(=O)c1cc(Cl)cc(Cl)c1)[C@H](C)CN(C(=O)Nc1ccc(F)cc1)[C@H](C)CO | 1.08 ± 0.028
CS(=O)(=O)N1CC(=O)N2[C@@H](CO)[C@H](c3ccc(C#Cc4ccc(F)cc4)cc3)[C@@H]2C1 | 1.0205 ± 0.00046
CCC(=O)N1CC2(C1)[C@@H](c1ccc(-c3ccc(F)cc3)cc1)[C@H](CO)N2C(C)=O | 1.12 ± 0.041
CCN1[C@@H]2Cn3c(ccc(-c4ccccc4OC)c3=O)[C@H]1[C@@H](C(=O)NCc1ccccn1)[C@@H]2CO | 0.945 ± 0.059
COc1ccc2c3c([nH]c2c1)[C@H](CO)N(C[C@]31CCN(CC1)C(=O)Cc1cccnc1)S(=O)(=O)c1ccc(C)cc1 | 0.75 ± 0.079

Compound | viability index
COc1ccc2c3c([C@H](CO)N(Cc4cccc(F)c4)C[C@]33CCN(CC3)C(=O)Cc3ccccc3)n(C)c2c1 | 0.947 ± 0.02
C[C@@H]1CN([C@@H](C)CO)C(=O)c2cc(NC(=O)C3CC3)ccc2O[C@H]1CN(C)S(=O)(=O)c1ccccc1 | 0.9821 ± 0.0066
COc1ccccc1S(=O)(=O)N(C)C[C@@H]1OCc2cn(nn2)CCCC(=O)N([C@H](C)CO)C[C@@H]1C | 1.06 ± 0.044
COc1ccc2c3c([C@H](CO)N(C[C@]33CCN(CC3)C(=O)C3CCCC3)S(C)(=O)=O)n(C)c2c1 | 0.984 ± 0.11
C[C@@H](O)C#Cc1ccc([C@H]2[C@@H](CO)N3CCCCN(CC4CC4)C[C@H]23)cc1 | 1.01 ± 0.025
C[C@H](CO)N1C[C@H](C)[C@H](CN(C)C(=O)Nc2ccnc(N3CCOCC3)c2)OCc2cnnn2CCCC1=O | 1.039 ± 0.0034
COc1ccc(CNC(=O)C[C@@H]2C=C[C@H](NC(=O)c3cccc(F)c3)[C@@H](CO)O2)cc1 | 0.967 ± 0.044
O=C(C[C@H]1C[C@H]2c3cc(NC(=O)c4cccnc4)ccc3O[C@H]2[C@H](CO)O1)NCc1cc(F)ccc1F | 1.06 ± 0.019
CCC(=O)N1C[C@]2(CN(Cc3ccc(F)cc3)C2)c2c([C@H]1CO)n(C)c1cc(OC)ccc21 | 1.01 ± 0.043
C/C=C/c1ccc([C@@H]2[C@H]3CNC[C@@H]2N3C(=O)NCCC)cc1 | 1 ± 0.068
COc1ccc2c3c([C@H](CO)N(C[C@]33CCN(CC3)S(C)(=O)=O)C(=O)CN(C)C)n(C)c2c1 | 0.986 ± 0.08
C[C@@H]1CCCCO[C@@H](CN(C)C(=O)NC2CCCCC2)[C@H](C)CN([C@H](C)CO)C(=O)c2cc(N(C)C)ccc2O1 | 1.082 ± 0.0051
CCS(=O)(=O)N1CC[C@@]2(CC1)CN[C@H](CO)c1c2c2ccc(OC)cc2n1C | 1.055 ± 0.0077
COc1ccc(S(=O)(=O)Nc2ccc3c(c2)OC[C@H](C)NC[C@@H](C)[C@H](OC)CN(C)C3=O)cc1 | 1.07 ± 0.017
N#C[C@H]1[C@@H](c2ccc(C3=CCCCC3)cc2)[C@H](CO)N1S(=O)(=O)c1ccccc1 | 1.094 ± 0.0056
COc1ccccc1-c1cn(CC[C@H]2CC[C@H](NC(=O)C3CCCCC3)[C@H](CO)O2)nn1 | 0.942 ± 0.028
CO[C@H]1CC[C@@H]2CCN(C)C(=O)CC3(CCCCC3)CN(C)C(=O)c3cc(C#N)ccc3OC[C@@H]1O2 | 1.01 ± 0.031
